In a collection of fitness landscapes (doi:10.1016/j.celrep.2020.107928):
The full ranking holds about 81,000 sequences; the median of “one-hybrid fitness for binding NBS DNA” is about -0.1, and the highest 2% start at about 0.36. This is one part of the list.

B1: Caulobacter ParB omega fusion; a variant is named by its letters at X, in order, B8GW30 (parent)
chain: MESVVVGEPGMSEGRRGLGRGLSALLGEVDAAPAQAPGEQLGGSREAPIEILQRNPDQPRRTFREEDLEDLSNSIREKGVLQPILVRPSPDTAGEYQIVAGERAWRAAQRAGLKTVPIMVRELDDLAVLEIGIIENVQRADLNVLEEALSYKVLMEKFERTQENIAQTIGKSXSHVANXMRLLXLPDEVQSYLVSGELTAXHARAIAAAADPVALAKQIIEGGLSVRETEALARKAPNLSAGKSKGGRPPRVKDTDTQALESDLSSVLGLDVSIDHRGSTGTLTITYATLEQLDDLCNRLTRGI

Variants of: B1
Test: one-hybrid fitness for binding NBS DNA (the Noc-binding site; scaled: cognate 1, non-cognate 0); higher = stronger binding
Settings: with NBS DNA site
In short: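 Pre- and post-selection plasmids were Illumina-sequenced, three replicate libraries were pooled, and any variant with under 10 reads was removed. The libraries were Caulobacter ParB with four specificity codons randomised, selected in E. coli USO through a HIS3 reporter whose site is 19 bp from the promoter. Cells grew 48 hours at 37°C on M9 without histidine, with 0.1 mM IPTG and 5 mM 3-AT. Fitness is the log change in variant-to-wild-type read ratio, rescaled against cognate and non-cognate.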

one-hybrid fitness for binding NBS DNA, 0.283:
RRGC

one-hybrid fitness for binding NBS DNA, 0.66:
KRKT

one-hybrid fitness for binding NBS DNA, 0.545:
RMNR

one-hybrid fitness for binding NBS DNA, 0.351:
RRKW

one-hybrid fitness for binding NBS DNA, ≤ 0.2:
MQPN
NFER
FQDS
VSPM
NPVL
RADC
CLST
CSDG
KLTA
LNAW
RYYK
TVAT
NHTR
EKQS
FVKH
QAWL
RWHS
HQRL
PYSV
RYAP
QMDA
MRKG
VEST
REPC
QETF
FIYR
EDKR
LTVR
TGFT
TFSY
QSHE
FKRR
ALYV
TEVE
QQWL
MRPG
RDGN
NPPD
ITDS
CGTT
QEPQ
PRVS
KWKR
AWMS
TLEN
CLMT
LDTE
QQWG
LLGW
TTTQ
LDAT
FVTV
IPKR
PMWR
TSPV
LWTS
WRKS
GFRN
MAFS
RHMP
SDVG
KIHG
RLMD
YTGI
HSRT
CNMM
AHTR
QDYC
SFNR
ESFV
EGHI
YWPG
DPKG
AGQD
QDIA
HQHT
LPEL
VHRM
LMTE
NFLM
VAHL
HKVI
RIWG
IQRA
SHFT
ICVG
HYPY
TIAS
QDRA
TAPT
GSAD
GIIS
YTEC
MAHF
TLHM
CTNW
TSER
KRTY
DCTG
HVSV
VPVL
MCSC
TPET
VWQS
LLTY
SSVE
LFVS
QDHY
YKIK
NGIW
RLLL
VSPF
GGIT
EDAY
EIGC
SANC
FWCS
HMRI
WPYE
PEPG
VGAV
GEGG
PEIP
MQTD
CPLV
HTNT
YSKG
AWCT
TATS
TPAD
RLIM
WVTD
SNAR
MDCS
PGIY
TWDL
GLNL
WRTY
PCHG
RIDE
YTTL
DQPL
EPPL
AMYH
RLWQ
HMTL
QHCC
HYIT
CLGT
DLRS
RKFE
WGLA
SNVE
HFNI
YIDK
SIGF
RDTL
IEAC
WRVL
SVIE
KGNS
FMLR
PDIW
PWSM
MESG
PPPW
HIII
KRSI
RIGH
DWKG
YWCR
MVLT
NKYQ
HDDF
RHDI
WVHS
HCDK
FLRL
VTRE
MQTG
RCYW
RVDM
ECHS
TIKN
TCTT
MIRF
FGLV
RFFL

one-hybrid fitness for binding NBS DNA, 0.523:
KKKR

one-hybrid fitness for binding NBS DNA, 0.339:
RQKA

one-hybrid fitness for binding NBS DNA, 0.265:
KHKT
